Source: PubChem BioAssay AID686971 (National Center for Advancing Translational Sciences (NCATS), 2013)
About 7,500 (2.1%) of roughly 360,000 compounds were called active. Inconclusive results, whose numbers are uncertain, are shown with a selection of clear calls. Calls follow the shape of the dose curve; as a rule, active = well fitted cell-killing curve with a large enough effect; inconclusive = small, poorly fitted or top-dose-only effect, or effect the other way, or another doubt; inactive = no such curve, though single readings can be large or run the other way. No potency is given beside an inconclusive call; the fits are too rough.

Assay: qHTS for induction of synthetic lethality in tumor cells producing 2HG: qHTS for the HT-1080-IDH1KD cell line;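 as to activity, negative = toxicity: 0% = DMSO wells and -100% = cell-free medium wells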
Details: HT-1080 IDH1 knockdown viability, ATP luminescence, 48 h; activity, negative = toxicity: at 46.1 µM (top of the series) unless noted
How it was run: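 Assay cells: HT-1080 with IDH1 knockdown, 750 per well, RPMI/5% FBS. Exposure: 48 h at 37 °C following 2 h pre-incubation. Read: CellTiter-Glo luminescence; fitted concentration-response, curve class assigned.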
Potency is read from the fitted curve at half-maximal effect; tags tell the direction and shape of the fitted curve.

| SMILES | activity, negative = toxicity | Potency |
| --- | --- | --- |
| Cc1cc2nnn(-c3nnc(-c4ccccc4)c4ccccc34)c2cc1C | inactive: 16.6% |  |
| CC(C)(C)NS(=O)(=O)c1ccc(C(=O)Nc2ccc3c(c2)OCO3)cc1 |  | inconclusive [cytotoxic, partial curve] |
| COc1ccc(-c2cn(Cc3ccc([N+](=O)[O-])cc3)nn2)cc1 | inactive: -2.95% |  |
| COc1cccc(N=CC2=C(O)CC(C)(C)CC2=O)c1 |  | inconclusive [cytotoxic, single point] |
| O=C(/C=C/c1ccc(F)cc1)NC(Cc1c[nH]c2ccccc12)C(=O)O (stereo unspecified) |  | inconclusive [rising, single point] |
| CN(CCO)C(=O)c1c(NC(=O)c2ccccc2)sc2c1CCCC2 | inactive: 5.78% |  |
| CCCCC(=O)Nc1cccc(-c2ccc3nncn3n2)c1 | inactive: 4.59% |  |
| CCOc1cc(/C=N/NC(=O)Cn2nc([N+](=O)[O-])cc2C)cc(Br)c1OCc1ccccc1F |  | active: 10 µM |
| Oc1ccc(C[C@H]2CNCCN2CC2(c3ccccc3)CC2)cc1 | inactive: -11.7% |  |
| NNc1nc(-c2ccccc2)cc(-c2ccccc2O)n1 |  | active: 12.6 µM |
| O=C(NCc1cccnc1)c1cccc(NS(=O)(=O)c2ccc(Br)cc2)c1 |  | active: 3.26 µM |
| CCN(CC(=O)Nc1ccc2c(c1)OCCO2)C(=O)CSCC(=O)Nc1ccc(C)cc1 | inactive: -8.56% |  |
| O=C(Nc1ccc(Oc2ccccc2)nc1)C1CCCCN1Cc1ccco1 (stereo unspecified) |  | inconclusive [cytotoxic, full curve] |
| COc1cc2c(cc1OC)CN(C(C)C(=O)N1CCc3ccccc31)CC2 (stereo unspecified) |  | inconclusive [cytotoxic, single point] |
| C[C@@]12CCC=C[C@H]1[C@H](c1ccc3ccccc3c1)N(Cc1ccccc1)C2=O | inconclusive: -56% |  |
| Cc1cccc(NC(=O)c2ccc([N+](=O)[O-])s2)n1 |  | inconclusive [cytotoxic, single point] |
| Oc1ccc(-c2nc(-c3ccc(O)c(O)c3)cs2)cc1 |  | inconclusive [cytotoxic, full curve] |
| COc1ccc(-c2noc(C3CCCN(C(=O)c4ccc(F)cc4)C3)n2)cc1 (stereo unspecified) |  | inconclusive [cytotoxic, single point] |
| O=C(N/N=C/c1ccc([N+](=O)[O-])o1)c1cc(-c2ccncc2)nc2ccccc12 |  | inconclusive [cytotoxic, full curve] |
| CCOc1ccccc1NC(=O)Cn1nnc(C(=O)NCc2ccc3c(c2)OCO3)c1N |  | active: 11.6 µM |
| CCOC(=O)C1(CCCc2ccccc2)CCN(Cc2ccn[nH]2)CC1 | inconclusive: -31.3% [cytotoxic] |  |
| O=C(c1ccc(Cl)cc1)C(Cn1cncn1)C(Sc1ccccc1)c1ccccc1 (stereo unspecified) |  | inconclusive [cytotoxic, single point] |
| CCCCOC(=O)c1ccc(NC(=S)NC(=O)c2c(Cl)cnn2CC)cc1 | inactive: -8.45% |  |
| O=[N+]([O-])c1ccc(/C=N/NC(=S)Nc2ccccc2F)o1 | inactive: 15.1% |  |

| SMILES | activity, negative = toxicity | Potency |
| --- | --- | --- |
| COc1ccc(-c2cc3nc(C)n(N)c(=O)c3s2)cc1 |  | active: 5.8 µM |
| CCOC(=O)C(C)On1c(-c2ccc(Cl)cc2)nc2ccc([N+](=O)[O-])cc21 (stereo unspecified) |  | inconclusive [cytotoxic, single point] |
| Cc1oc2c(c1C(=O)c1ccccc1)C(=O)C(=O)c1ccccc1-2 |  | active: 18.4 µM |
| Cc1cccc(N2CCN(C(=S)c3ccc(-c4ccccc4[N+](=O)[O-])o3)CC2)c1 |  | inconclusive [cytotoxic, single point] |
| CCCN=C1N(C)C[C@@H]2[C@@H]3C(=O)N(Cc4ccccc4)C(=O)[C@@H]3[C@](CC)(C(=O)OC)N12 | inactive: -4.07% |  |
| O=C(NNC(=O)c1ccco1)c1cccc([N+](=O)[O-])c1 |  | inconclusive [rising, single point] |
| COc1ccc(CCn2c(C)cc(C(=O)CCl)c2C)cc1OC |  | inconclusive [cytotoxic, single point] |
| COc1ccc(CCCNC(=O)C2Cc3c(-c4ccc(NC(C)=O)cc4)ccnc3O2)cc1 (stereo unspecified) |  | active: 16.4 µM |
| CCn1nc2cc(C(=O)NCc3cc(C(F)(F)F)cc(C(F)(F)F)c3)ccc2c1OC |  | inconclusive [cytotoxic, partial curve] |
| COc1ccccc1C/C(N)=N/OC(=O)c1cccc([N+](=O)[O-])c1C |  | inconclusive [cytotoxic, single point] |
| O=C1/C(=C/c2ccncc2)Oc2cc(OS(=O)(=O)c3ccccc3)ccc21 |  | inconclusive [cytotoxic, single point] |
| CCOC(=O)[C@]12CCC=C1N(Cc1ccc3c(c1)OCO3)C(=O)[C@H](CC(=O)NCc1cccc3ccccc13)C2 |  | inconclusive [cytotoxic, single point] |
| NS(=O)(=O)c1ccc(NC(=O)c2cc(-c3cc(Cl)ccc3O)n[nH]2)cc1 |  | active: 18.4 µM |
| Cc1ccc(NC(=O)CCCNC(=O)c2ccc(Cl)cc2)c(O)c1 | inactive: -1.28% |  |
| O=C(CCc1nc2ccccc2c(=O)[nH]1)N1CCN(c2ccc(F)cc2)CC1 | inactive: -0.95% |  |
| CCN1CCN(c2ccc(S(=O)(=O)N3CCCCC3)cc2NC(=O)c2ccc(C)c(C)c2)CC1 | inactive: -20.7% |  |
| COc1ccc(C(=O)Nc2ccccc2C(=O)Nc2cccnc2)cc1 |  | inconclusive [cytotoxic, partial curve] |
| COc1ccccc1CNc1nc(NCCOc2ccccc2Cl)c2sccc2n1 |  | inconclusive [cytotoxic, single point] |
| COc1ccc(-c2nnn(CC(=O)N(CCO)C(C(=O)NC3CCCC3)c3ccc(F)cc3)n2)cc1 (stereo unspecified) |  | inconclusive [cytotoxic, single point] |
| CC1SC(=S)N(c2ccc(N(C)C)cc2)C1=O (stereo unspecified) |  | inconclusive [cytotoxic, single point] |
| COc1ccc(-n2nc3c(c2NC(=O)CCl)CSC3)cc1 |  | active: 7.31 µM |
| Cc1ccc(-c2cc([C@H]3[C@@H]4C=CCC[C@@]4(C)C(=O)N3Cc3ccccc3)ccc2F)cc1 |  | inconclusive [cytotoxic, single point] |
| CC1(C(=O)NCc2ccc(F)c(F)c2)Cc2c(-c3ccccc3)ccnc2O1 (stereo unspecified) |  | inconclusive [cytotoxic, single point] |
| CC1(C)CC(N2CCN(c3ccccc3)CC2)=CC(=[N+]2CCCC2)C1 |  | active: 14.1 µM |

| SMILES | activity, negative = toxicity | Potency |
| --- | --- | --- |
| C/C(=C\C(=O)c1ccccc1)Nc1ccc(O)cc1 |  | inconclusive [cytotoxic, single point] |
| O=C(NCc1ccccc1F)C1CCCN(C(=O)Nc2ccc(F)cc2)C1 (stereo unspecified) |  | inconclusive [cytotoxic, single point] |
| CCc1c2ccccc2nn1-c1ccccc1C(=O)C(C)=O | inactive: -1.7% |  |
| C=CCc1ccccc1OCCNCc1ccccc1 |  | inconclusive [cytotoxic, single point] |
| Cc1ccc(C(=O)c2cnc3ccccc3c2-c2ccccc2)cc1 | inactive: -17.6% |  |
| CCCCn1nnnc1C(c1cccc2ccccc12)N1CCN(C/C=C/c2ccccc2)CC1 (stereo unspecified) |  | inconclusive [cytotoxic, single point] |
| Cc1[nH]n(C2=NCCS2)c(=O)c1N=Nc1cccc(C(F)(F)F)c1 |  | inconclusive [cytotoxic, partial curve] |
| C=CCSc1nnc(NC(=O)c2ccc(S(=O)(=O)NCC3CCCO3)cc2)s1 (stereo unspecified) |  | inconclusive [cytotoxic, single point] |
| Nc1ccc(O)cc1C(=O)OCC(=O)c1ccc(C2CCCCC2)cc1 |  | inconclusive [cytotoxic, partial curve] |
| c1ccc2c(c1)CCN(c1ncnc3c1[nH]c1ccccc13)C2 |  | inconclusive [cytotoxic, partial curve] |
| Cc1cc(NC(=S)N(CCN2CCCCC2)Cc2ccco2)ccc1Cl | inactive: -17.7% |  |
| COC(=O)c1ccc2nc(-c3ccc(Cl)cc3)c(Cc3ccsc3)n2c1 | inactive: 16.7% |  |
| CC(C)(C)c1ccc(CC(=O)N2CCC2(C)C(=O)Nc2cnc3ccccc3c2)cc1 (stereo unspecified) |  | inconclusive [cytotoxic, single point] |
| CN(Cc1nc2ccccc2c(=O)[nH]1)CC(O)COCc1ccco1 (stereo unspecified) | inactive: 4.13% |  |
| CCN1CCN(c2cc(C)c3cc(NC(=O)c4ccc(OC)c(OC)c4)ccc3n2)CC1 |  | inconclusive [cytotoxic, partial curve] |
| Cc1ccc(C)c(OCc2ccc(C(=O)N3N=C(C(F)F)CC3(O)C(F)F)o2)c1 (stereo unspecified) |  | inconclusive [cytotoxic, single point] |
| Cn1c(=O)c2c(nc(N3CCCC3)n2CC(O)CO)n(C)c1=O (stereo unspecified) |  | inconclusive [cytotoxic, single point] |
| O=C(NCC1CCN(c2ccc(S(=O)(=O)N3CCOCC3)cc2)CC1)Nc1ccccc1 | inactive: -2.58% |  |
| O=C1c2ccc(Cl)cc2S(=O)(=O)c2cccc(C(=O)N3CCN(c4ccc(Cl)cn4)CC3)c21 |  | inconclusive [cytotoxic, single point] |
| COc1ccc(C)cc1Nc1nc(N)c2cc(OC)c(OC)cc2n1 |  | active: 18.4 µM |
| COc1cc(OC)cc(C(=O)NNC(=O)c2cc(S(=O)(=O)N3CCOCC3)ccc2F)c1 |  | inconclusive [cytotoxic, partial curve, poor fit] |
| COc1ccc(-c2c(C)nn3c(N4CCOCC4)cc(C)nc23)cc1OC | inactive: 3.37% |  |
| COc1cc2c(cc1OC)CN(C(=O)CCCN1C(=O)c3ccccc3C1=O)CC2 | inactive: -7.33% |  |
